Experimental data as given in the supplement of paper PMC10369915.
The list shows a part of the results. Rule as the data show it: active = 3.2 or more and inactive = the rest. Only a few entries rise above the background.

B1: CFI_Y421_YF (peptide)
chain: IFHENYNAGTF
B2: CFTR_Y1014_P1013L (peptide)
chain: AVLQLYIFVAT
B3: CFTR_Y512 (peptide)
chain: IFGVSYDEYRY
B4: CFTR_Y512_D513G (peptide)
chain: IFGVSYGEYRY
B5: CFTR_Y512_F508C_YF (peptide)
chain: ICGVSYDEFRF
B6: CFTR_Y512_I507V_YF (peptide)
chain: VFGVSYDEFRF
B7: CFTR_Y517_V520F (peptide)
chain: YDEYRYRSFIK
B8: CHD7_Y1217_YF (peptide)
chain: NIQKKYFRAIL
B9: CHD7_Y1218_YF (peptide)
chain: IQKKFYRAILE
B10: CHL1_Y291_T287A (peptide)
chain: EAKENYGKTLK
B11: CHN1_Y143 (peptide)
chain: TINPIYEHVGY
B12: CHN1_Y143_YF (peptide)
chain: TINPIYEHVGF
B13: CHRND_Y38 (peptide)
chain: FQEKGYNKELR
B14: CHST6_Y358_Y358D (peptide)
chain: LQLLGDRPVYS
B15: CHST6_Y358_Y358H_YF (peptide)
chain: LQLLGHRPVFS
B16: CHST6_Y358_YF (peptide)
chain: LQLLGYRPVFS
B17: CKM_Y125_L127V (peptide)
chain: DLDPNYVVSSR
B18: CLCA1_Y147_R152K (peptide)
chain: KKLAEYGPQGK
B19: CLCA1_Y661 (peptide)
chain: GVYSRYFTTYD

molecular target: SHP2 C-SH2 domain E139D; test: enrichment score (SH2-bound / input frequency) (ratio); bacterial display of known human phosphotyrosine sites (pTyr-Var adds point mutants) read by sequencing; higher = stronger binding; tyrosines were phosphorylated by kinases first; conditions: peptide library: pTyr-Var
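Also: displayed peptides selected on beads carrying the immobilized SH2 domain, with library peptides lacking any tyrosine serving as negative controls.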

Enrichment score, inactive:
B1 1.03
B2 0.918
B3 1.68
B4 2.33
B5 1.2
B6 2.06
B7 1.01
B8 1.07
B9 1.18
B10 0.513
B11 0.806
B12 0.933
B13 0.977
B14 1.22
B15 1.36
B16 0.684
B17 0.627
B18 0.638
B19 0.921

molecular target: SHP2 C-SH2 domain wild-type; test: as above; conditions: peptide library: pTyr-Var

Enrichment score, inactive:
B1 0.893
B2 1.27
B3 1.57
B4 2.19
B5 1.55
B6 1.91
B7 0.84
B8 0.874
B9 1.01
B10 0.587
B11 0.683
B12 0.694
B13 0.925
B14 0.91
B15 1.41
B16 1.12
B17 0.64
B18 0.533
B19 1.16

molecular target: SHP2 N-SH2 domain L43F; test: as above; conditions: peptide library: pTyr-Var

Enrichment score, inactive:
B1 0.897
B2 0.798
B3 1.71
B4 2.2
B5 1.27
B6 1.65
B7 0.929
B8 0.7
B9 0.861
B10 0.472
B11 0.926
B12 0.983
B13 0.873
B14 1.57
B15 1.19
B16 0.7
B17 0.684
B18 0.602
B19 1.09

molecular target: SHP2 N-SH2 domain T42A; test: as above; conditions: peptide library: pTyr-Var

Enrichment score, inactive:
B1 0.734
B2 0.947
B3 1.75
B4 1.85
B5 1.15
B6 2.32
B7 0.832
B8 0.657
B9 0.789
B10 0.45
B11 0.595
B12 0.873
B13 1.12
B14 1.18
B15 1.03
B16 1.05
B17 0.579
B18 0.74
B19 1.08

molecular target: SHP2 N-SH2 domain T52S; test: as above; conditions: peptide library: pTyr-Var

Enrichment score, inactive:
B1 0.983
B2 1.22
B3 1.88
B4 2.36
B5 1.19
B6 1.82
B7 0.842
B8 0.95
B9 0.95
B10 0.431
B11 0.777
B12 0.87
B13 0.871
B14 1.41
B15 1.69
B16 1.01
B17 0.727
B18 0.63
B19 1.05

molecular target: SHP2 N-SH2 domain wild-type; test: as above; conditions: peptide library: pTyr-Var

Enrichment score, inactive:
B1 0.798
B2 1.14
B3 1.76
B4 2.28
B5 1.51
B6 1.48
B7 0.845
B8 1.21
B9 0.798
B10 0.527
B11 0.89
B12 0.837
B13 0.919
B14 1.54
B15 1.21
B16 1
B17 0.557
B18 0.853
B19 0.823
